Test results: PubChem BioAssay AID624418 (National Center for Advancing Translational Sciences (NCATS), 2012)
Several values for one entry are separate records, joined by “and”; a condition that tells them apart may be missing. Identical values can stand only once. About 530 (0.13%) of roughly 410,000 compounds were called active. This list was built around the results that the source calls inconclusive (neither active nor inactive); the mix of calls is not that of the screen. The call rests on the fitted dose curve; in most records, active means well fitted inhibition curve with a large enough effect; inconclusive means small, poorly fitted or top-dose-only effect, or another doubt; inactive means no such curve, though single readings can be large or run the other way. Potencies of inconclusive entries are doubtful fits and often do not repeat.

Test: qHTS of GLP-1 Receptor Inverse Agonists: Cytotox Screen
Conditions: HEK293 cAMP-luciferase reporter cells, luminescence, 24 h; activity change, negative = inhibition: at 38.3 µM (top of the series) unless noted
Method in brief: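 A 23 nL compound transfer followed 12 hours of cell culture at 37 deg C; exposure then lasted 24 hr. Luciferase assay detection reagent was dispensed and plates read for luminescence after a 12 min room-temperature wait.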
On the % scale 0 is the no-effect control and ±100 the full control effect; potency means the concentration at half of the fitted maximal effect.

SMILES | Potency | activity change, negative = inhibition
O=P(COCCCCCOCP(=O)(c1ccccc1)c1ccccc1)(c1ccccc1)c1ccccc1 | inconclusive: 0.501 µM [inhibitor, full curve, poor fit] | –
CC(=O)c1cccc(N2C(=NC(=O)C3CC3)SC3CS(=O)(=O)CC32)c1 (stereo not given) | inconclusive: 0.501 µM [inhibitor, full curve, poor fit] | –
O=C(CC1SC(=Nc2ccc(OC(F)F)cc2)N(CCC2=CCCCC2)C1=O)Nc1ccccc1F (stereo not given) | inconclusive: 28.2 µM [inhibitor, single point] | –
C(=N\Nc1ccc2ccccc2n1)/c1ccc2c(c1)OCO2 | inconclusive: 10 µM [inhibitor, partial curve] | –
COc1ccc(-c2cc(C(F)(F)F)nc(S(=O)(=O)CCCC(=O)Nc3cccnc3Cl)n2)cc1OC | inconclusive: 20 µM [inhibitor, single point] | –
Cc1cccc(NC(=S)Nc2ccccn2)c1 | inconclusive: 4.47 µM [inhibitor, full curve] | –
COc1cc(/C=C2\SC(=S)N(NS(=O)(=O)c3ccc(C)cc3)C2=O)ccc1O | inconclusive: 22.4 µM [inhibitor, single point] | –
Cc1cc(C(=O)Nc2sc3c(c2C#N)CCC(C(C)(C)C)C3)no1 (stereo not given) | inconclusive: 14.1 µM [inhibitor, single point] | –
COc1ccc(OC)c(C2CC(=O)c3c([nH]c(C(=O)OC(C)C)c3C)C2)c1 (stereo not given) | inconclusive: 0.891 µM [inhibitor, full curve, poor fit] | –
C/C(=N\NC(=O)c1ccccc1OCc1ccc(F)cc1)c1ccccn1 | inconclusive: 17.8 µM [inhibitor, partial curve, poor fit] | –
CCOC(=O)c1sc(NC(=O)CC2OC(=O)c3ccccc32)nc1C (stereo not given) | inconclusive: 11.2 µM [inhibitor, single point] | –
CCOc1cc(/C=C2/NC(=O)NC2=O)cc([N+](=O)[O-])c1O | inconclusive: 10 µM [inhibitor, partial curve, poor fit] | –
CCOC(=O)c1c(-c2ccccc2)csc1NC(=S)NC | inconclusive: 28.2 µM [inhibitor, single point] | –
CCOc1ccc(NC(=O)c2cccc3ccccc23)cc1 | inconclusive: 10 µM [inhibitor, partial curve] | –
CCOC(=O)Cc1nnc2c(Nc3ccc(Cl)cc3)nc3nonc3n12 | inconclusive: 5.01 µM [inhibitor, partial curve] | –
COCc1ccc(C(=O)Nc2cccc(S(=O)(=O)N(C)c3ccccc3)c2)cc1 | inconclusive: 28.2 µM [inhibitor, single point] | –
CC(=O)Nc1ccc(Oc2nc(-c3ccccn3)nc3ccccc23)cc1 | inconclusive: 22.4 µM [inhibitor, single point] | –
CCOc1cc(/C=N/Nc2nc3ccccc3[nH]2)cc(Br)c1OCC(=O)N(C)C | inconclusive: 31.6 µM [inhibitor, single point] | –
Cc1ccc2c(c1)C1CN(C)CCC1N2Sc1ccccc1[N+](=O)[O-] (stereo not given) | inconclusive: 28.2 µM [inhibitor, single point] | –
S=C(NCCc1ccccc1)N/N=C/c1cccs1 | inconclusive: 2.82 µM [inhibitor, full curve, poor fit] | –

SMILES | Potency | activity change, negative = inhibition
CN(C)c1ccc(N=Nc2ccc(S(=O)(=O)O)cc2)c2ccccc12 | inconclusive: 10 µM [inhibitor, partial curve, poor fit] | –
Oc1ccc(CNc2ccccc2F)c2cccnc12 | inconclusive: 31.6 µM [inhibitor, single point] | –
CCOC(=O)C1=C(c2ccccc2)NC(N)=NC1c1ccc(OCc2ccc(Cl)cc2)c(OC)c1 (stereo not given) | inconclusive: 28.2 µM [inhibitor, single point] | –
O=[N+]([O-])c1ccc(N2CCCCC2)s1 | inconclusive: 12.6 µM [inhibitor, single point] | –
CCOC(=O)c1c(-c2ccc(C)cc2)csc1NC(=O)c1cc(=O)c2ccc(C)cc2o1 | – | inactive: 15.2%
COc1ccccc1N1CCN(CC(=O)Nc2ccc(CN3CCCCC3)cc2)CC1 | inconclusive: 11.2 µM [inhibitor, partial curve, poor fit] | –
O=C(NC1CCCC1)c1sc(=S)n2c1[nH]c(=O)c1ccccc12 | inconclusive: 31.6 µM [inhibitor, single point] | –
CCn1nnc2cc(C(=O)NCCc3ccccc3F)ccc21 | – | inactive: 0.969%
CC1OC(CC(=O)O)CC2=C1C(=O)c1c(O)cccc1C2=O (stereo not given) | active: 0.891 µM | –
COc1ccc(C2SCC(=O)N2CCc2ccc(OC)c(OC)c2)cc1 (stereo not given) | inconclusive: 31.6 µM [inhibitor, single point] | –
CN(C)C(=O)c1ccc(COc2ccccc2Br)o1 | – | inactive: -2.73%
CN(C)CCCNc1cc(C(C)(C)C)nc2c(-c3ccc(Cl)cc3)cnn12 | inconclusive: 28.2 µM [inhibitor, single point] | –
CC(C)(C=O)C1=CC(=O)c2ccccc2C1=O | inconclusive: 7.08 µM [inhibitor, partial curve] | –
CC(OC(=O)CCCCCN=C1NS(=O)(=O)c2ccccc21)C(=O)Nc1cc(Cl)cc(Cl)c1 (stereo not given) | inconclusive: 12.6 µM [inhibitor, partial curve, poor fit] | –
COc1ccc(CCNc2nc(N3CCCCC3)nc(N3CCCCC3)n2)cc1OC | inconclusive: 31.6 µM [inhibitor, partial curve, poor fit] | –
Fc1ccc([C@@H]2CCNC[C@H]2COc2ccc3c(c2)OCO3)cc1 | inconclusive: 28.2 µM [inhibitor, single point] and inconclusive: 12.6 µM [inhibitor, single point] | –
COc1cc(NC(=O)c2cccc3c2C(=O)N(C2CCCCC2)C3)cc(OC)c1OC | inconclusive: 28.2 µM [inhibitor, single point] | –
CCCC(C(=O)Nc1ccncc1)c1ccccc1 (stereo not given) | – | inactive: -9.35%
Cc1ccc(NC(=O)c2ccoc2C)cc1C | – | inactive: -21.1%
CC(=O)c1nc(N2C(=O)CC(Cc3cccc(C)c3)C2=O)sc1C (stereo not given) | – | inactive: -2.66%
